# Assay results taken from the supplement of paper PMC10126150.
# Values marked as one replicate rest on one cluster of the flow cell; about a third of the high ones do not repeat.
# Tested on: ATP
# Assay: switch fluorescence ratio, 500 uM ATP over buffer (Cy3 cluster intensity, sum of 5 cycles each) (fold (ratio)); higher = stronger signal-on switching upon ATP binding; sequences stand for … in TCGTCGGCAGCGTCAGATGTGTATAAGAGACAGTTTTTTTTTTTTTTTTTTTTTTTTT…TC
# Settings: aptamer strand: ATP DNA aptamer (quencher-CACCTGGGGGAGTATTGCGGAGGAAGG + anchor), 100 nM annealed; ATP concentration: 500 uM; one replicate
# In short: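 Clusters carrying Cy3-labelled switching strands on a modified Illumina MiSeq flow-cell were annealed to 100 nM quencher-labelled ATP aptamer and imaged in selection buffer. They were imaged again after 15 min with 500 uM ATP at 22 °C, over five buffer/ATP cycles with NaOH stripping and re-annealing in between. For each cluster, the fluorescence ratio is the summed Cy3 intensity of the target cycles divided by that of the buffer cycles, averaged per switch-domain sequence. Clusters outside 100-1000 RFU were left out.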
# 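Also: ATP exposure 15 min at 22 °C before imaging.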
row,Sequence,switch fluorescence ratio
1,CTGGTGTG,0.97
2,CTGGTTGGGC,1
3,CTGGTTGTGC,1.03
4,CTGGTTTAAA,0.964
5,CTGTACATTC,1.04
6,CTGTACGAGT,1
7,CTGTACGGCT,1.01
8,CTGTAGGAAA,1.02
9,CTGTAGGTAT,1.06
10,CTGTAGGTT,0.971
11,CTGTAGTGAA,1.21
12,CTGTCAAATC,1.12
13,CTGTCTAACT,0.992
14,CTGTCTAGCT,1.03
15,CTGTCTCCAT,1.01
16,CTGTCTCGTT,0.964
17,CTGTGAAAAG,1.01
18,CTGTGAAACT,1.02
19,CTGTGACGGG,0.988
20,CTGTGCGAAG,1.01
21,CTGTGGACGG,0.998
22,CTGTGGCGCC,0.986
23,CTGTGGTTAT,1
24,CTGTGTGAGA,1.03
25,CTGTTAATG,0.982

row,Sequence,switch fluorescence ratio
1,CTGTTATCTG,1.04
2,CTGTTATGAA,1.01
3,CTGTTCCCAT,1.06
4,CTGTTCTGCA,1.01
5,CTGTTGATCT,0.991
6,CTGTTGGTCG,0.886
7,CTGTTTATGG,1.1
8,CTGTTTTCAC,0.96
9,CTTAACGG,1.05
10,CTTAACTGTA,1.07
11,CTTAAGATGC,1.42
12,CTTAAGGGG,0.983
13,CTTAAGGGGG,0.989
14,CTTAAGTCTC,0.998
15,CTTACCCGGT,1.06
16,CTTACCCTGC,1.53
17,CTTACCCTTA,1.02
18,CTTACTCCAT,1.47
19,CTTACTTGGC,1.1
20,CTTAGAAACT,1.01
21,CTTAGAAAGT,1.04
22,CTTAGAGGAG,1.02
23,CTTAGCAGGT,1.02
24,CTTAGCGTTA,1.05
25,CTTAGGAGCC,0.978

row,Sequence,switch fluorescence ratio
1,CTTAGGTCTG,1
2,CTTAGTCCAG,1.01
3,CTTAGTCCTC,1
4,CTTAGTCCTG,0.938
5,CTTAGTG,0.971
6,CTTATAATTC,1.02
7,CTTATATAAG,1.06
8,CTTATCAATG,1
9,CTTATCGGTG,1.02
10,CTTATCTAGC,1.03
11,CTTATGAGTC,1.02
12,CTTATGTATG,1
13,CTTATTTAGG,0.926
14,CTTCAAGGCA,1.05
15,CTTCCCACTA,1.11
16,CTTCCCTAAG,1.07
17,CTTCCGCCCA,4.7
18,CTTCCGGGCT,1.34
19,CTTCGAATTC,1.8
20,CTTCGCGGGG,1
21,CTTCGGAGGC,1.31
22,CTTCGGGCGT,1.03
23,CTTCGTCGAC,1.22
24,CTTCGTGCGG,1.01
25,CTTCTAGGGC,0.96

row,Sequence,switch fluorescence ratio
1,CTTCTATAAA,1.02
2,CTTCTCATGT,1
3,CTTCTTAGTA,0.993
4,CTTCTTCATC,1.05
5,CTTCTTCGCA,3.8
6,CTTCTTGACT,1.03
7,CTTGAACTCT,1
8,CTTGAAGGG,0.978
9,CTTGAAGTAG,1
10,CTTGACACGT,1.03
11,CTTGACGCTA,1.8
12,CTTGAGAAGG,0.995
13,CTTGAGAGCT,0.962
14,CTTGAGGGTA,1.03
15,CTTGAGTTCA,1.07
16,CTTGATACCG,0.975
17,CTTGATCTCA,0.963
18,CTTGATGGAG,1.01
19,CTTGATTGGA,1.01
20,CTTGATTTAG,0.996
21,CTTGCATTTA,0.986
22,CTTGCCGAGC,1.05
23,CTTGCCTGGC,0.967
24,CTTGCCTTTA,0.998
25,CTTGCGAGTA,0.996

row,Sequence,switch fluorescence ratio
1,CTTGCGCCG,1.02
2,CTTGCGCTGC,1.47
3,CTTGCGTCCA,1.05
4,CTTGCTGCAA,2.5
5,CTTGCTGGCG,0.977
6,CTTGGCAGT,1.09
7,CTTGGCCGTG,1
8,CTTGGGATGG,0.994
9,CTTGGGCCCA,0.993
10,CTTGGGTAC,1
11,CTTGGTACCT,1.01
12,CTTGGTCCGA,1.05
13,CTTGGTTAAG,0.951
14,CTTGGTTCGT,1.01
15,CTTGTAAACG,0.985
16,CTTGTATCAT,0.996
17,CTTGTCGAAG,1.09
18,CTTGTCTAAA,0.979
19,CTTGTTATTA,1.03
20,CTTGTTCGCA,1.12
21,CTTGTTGGGA,1
22,CTTGTTGGTT,1.02
23,CTTTAAACCT,2.86
24,CTTTAATGGT,0.993
25,CTTTAGATAT,0.963

row,Sequence,switch fluorescence ratio
1,CTTTAGCACG,1.01
2,CTTTATAAGC,0.953
3,CTTTATAGAG,0.977
4,CTTTATCTTG,0.975
5,CTTTATGCAT,1.04
6,CTTTCACCGG,1.04
7,CTTTCAGTAA,1.03
8,CTTTCATCAT,1.01
9,CTTTCATGGT,0.971
10,CTTTCCACGT,1.04
11,CTTTCCCTGC,1.16
12,CTTTCCGTTT,1.02
13,CTTTCGGGAC,1.19
14,CTTTCGTATG,1.05
15,CTTTGAC,0.988
16,CTTTGACCTC,1.04
17,CTTTGACTTC,0.985
18,CTTTGAGGAT,0.985
19,CTTTGAGGCT,1.02
20,CTTTGATTTC,1.06
21,CTTTGCTTTC,1.19
22,CTTTGGATAG,0.971
23,CTTTGGCAGG,1.01
24,CTTTGTACTG,1.05
25,CTTTTAAGTC,1.01

row,Sequence,switch fluorescence ratio
1,CTTTTACTTT,0.995
2,CTTTTCCGTG,1.04
3,CTTTTCGACA,0.999
4,CTTTTGATAG,0.999
5,CTTTTTTAT,1.05
6,GAAAAACAGC,1.02
7,GAAAAACCGG,0.975
8,GAAAACATA,1.03
9,GAAAAGGCTT,1.02
10,GAAAATAATA,1.01
11,GAAAATGATA,1.01
12,GAAACCGTTG,1.05
13,GAAACGCCAG,0.981
14,GAAACTACGC,1.28
15,GAAACTAGGG,1.02
16,GAAACTGCTT,0.933
17,GAAAGAGACC,1.03
18,GAAAGAGTCA,0.94
19,GAAAGATTGA,1
20,GAAAGTAAAG,1.04
21,GAAAGTATTA,1.02
22,GAAATAGCCG,1.03
23,GAAATCAGTT,0.95
24,GAAATCCCCT,1.04
25,GAAATCCGTC,1.13

row,Sequence,switch fluorescence ratio
1,GAAATGCAAG,1.03
2,GAAATGTCGT,1.04
3,GAAATTACAC,1.09
4,GAACAACATC,1.02
5,GAACACGGTT,1.03
6,GAACAGCGAA,1.02
7,GAACAGGGAA,1.01
8,GAACATGCCG,1
9,GAACCACGAA,1.04
10,GAACCCTGAC,2.42
11,GAACCTCAAG,1.06
12,GAACCTGGCG,1.08
13,GAACGAGGAG,0.974
14,GAACGCAGGG,1.21
15,GAACGCGAGC,2.34
16,GAACGCTAGA,1.1
17,GAACGCTTTG,1.08
18,GAACGGAAAG,1.08
19,GAACGGGGTA,1.03
20,GAACGTAGGA,1.02
21,GAACTAGGAA,0.969
22,GAACTCAAAA,1.04
23,GAACTCTTGG,1.01
24,GAACTGCAGG,0.976
25,GAACTTTCGG,0.997
